Values quoted from earlier work, collected in patent US20250073222A1, “METHODS FOR THE TREATMENT AND PREVENTION OF NON-VIRAL TICK-BORNE DISEASES AND SYMPTOMS THEREOF” (60 DEGREES PHARMACEUTICALS LLC, priority 2023, published 2025).

Tested on: P. falciparum gametocytes
Settings: in vivo, 1.66 mg/kg; cited from earlier work

COc1cc(C)c2c(Oc3cccc(C(F)(F)F)c3)c(OC)cc(NC(C)CCCN)c2n1 (stereo not shown) [tafenoquine, N(4)-[2,6-Dimethoxy-4-methyl-5-[3-(trifluoromethyl)phenoxy]quinolin-8-yl]pentane-1,4-diamine]
time until gametocytes were non-infectious to mosquitoes: within seven days
